Laboratory results reported in PubChem BioAssay AID2147 (National Center for Advancing Translational Sciences (NCATS), 2009).
Several values for one entry are separate records, joined by “and”; a condition that tells them apart may be missing. Identical values can stand only once. Among all 230,000 compounds or so, about 3,600 (1.6%) were called active. Inconclusive means that the source gave no clear call. Such entries were picked first, then a sample of the others. Calls come from the whole dose curve; as a rule, active = well fitted inhibition curve with a large enough effect (not every such curve was filed as active); inconclusive = small, poorly fitted or top-dose-only effect, or another doubt; inactive = no such curve, though single readings can be large or run the other way. A potency beside an inconclusive call is a rough fit, not a confirmed value.

Biological target: Lysine-specific demethylase 4E (Homo sapiens) (UniProt B2RXH2)
Sequence of UniProt B2RXH2 (B2RXH2 whole entry, looked up, the tested form may be a part): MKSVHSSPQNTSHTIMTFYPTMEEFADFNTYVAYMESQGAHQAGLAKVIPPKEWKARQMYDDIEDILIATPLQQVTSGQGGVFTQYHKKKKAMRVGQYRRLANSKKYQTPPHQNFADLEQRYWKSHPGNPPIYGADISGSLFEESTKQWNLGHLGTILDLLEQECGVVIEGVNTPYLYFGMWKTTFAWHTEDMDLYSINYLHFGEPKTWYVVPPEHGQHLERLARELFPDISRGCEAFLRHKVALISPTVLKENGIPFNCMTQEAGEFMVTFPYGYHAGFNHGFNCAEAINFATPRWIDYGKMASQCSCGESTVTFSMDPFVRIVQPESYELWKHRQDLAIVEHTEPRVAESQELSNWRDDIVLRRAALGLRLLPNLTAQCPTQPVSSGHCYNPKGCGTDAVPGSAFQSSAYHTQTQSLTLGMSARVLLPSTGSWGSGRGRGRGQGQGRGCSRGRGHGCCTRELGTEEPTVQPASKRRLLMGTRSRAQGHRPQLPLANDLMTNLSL
Test: qHTS Assay for Inhibitors of Human Jumonji Domain Containing 2E (JMJD2E)
Conditions: JMJD2E catalytic domain, FDH-coupled NADH fluorescence (FDH is formaldehyde dehydrogenase); series mostly up to 57.1 µM
Note: nearly all actives have a fitted effect of over 50% in size.
Potency is the fitted concentration of half-maximal effect; tags give direction and shape of the fitted curve.

| Compound | Potency |
| --- | --- |
| COCCN(CCOC)c1nc(C)nc2c1nc(-c1ccccc1)n2CCN(C)C | inconclusive: 14.1 µM [inhibitor, partial curve] |
| Cc1ccn2c(NC(=O)C(C)(C)Oc3ccc(Cl)cc3)c(-c3cccs3)nc2c1 | inconclusive: 28.2 µM [inhibitor, partial curve] |
| NC(N)=Nc1nc(-c2ccccc2)c2cc(F)ccc2n1 | inconclusive: 31.6 µM [inhibitor, partial curve] |
| Cc1cccc(/C=C\c2ccccc2)n1 | inconclusive: 35.5 µM [inhibitor, single point] |
| CCOC(=O)c1nc2c(ccc3ccccc32)cc1C | inconclusive: 31.6 µM [inhibitor, partial curve] |
| Cc1ccccc1C(=O)c1cccn1CC(=O)NC(C)c1ccc2c(c1)OCCO2 (stereo not drawn) | inconclusive: 35.5 µM [inhibitor, single point] |
| CCOC(=O)c1c(NC(=O)C2CCCN(S(=O)(=O)c3ccccc3)C2)sc2c1CCCC2 (stereo not drawn) | inconclusive: 31.6 µM [inhibitor, partial curve] |
| CN(C)Cc1nc2ccccc2c(=O)n1CC(=O)Nc1cccc(S(=O)(=O)N2CCOCC2)c1 | inconclusive: 11.2 µM [inhibitor, partial curve, poor fit] |
| COc1ccc(-c2cn[nH]c2C)cc1OC | inactive |
| CC(=O)NC1(C(F)(F)F)C(=O)NC(C)=C1C#N (stereo not drawn) | inconclusive: 39.8 µM [inhibitor, single point] |
| c1ccc(-c2cc3c(N4CCCC4)ncnc3s2)cc1 | inconclusive: 35.5 µM [inhibitor, partial curve] |
| Cc1ccc(-c2cc(C(=O)NN3CCOCC3)c3cc(Br)ccc3n2)o1 | inconclusive: 15.8 µM [inhibitor, partial curve] |
| O=S(=O)(c1ccc(Cl)cc1)N1CCN(c2nc(-c3cccs3)nc3ccccc23)CC1 | inconclusive: 14.1 µM [inhibitor, partial curve] |
| CN1c2ccc(Cl)cc2C(=O)NC1c1ccc([N+](=O)[O-])s1 (stereo not drawn) | inactive |
| CN(NS(C)(=O)=O)c1ncc(C(F)(F)F)cc1Cl | inactive |
| O=C1NC(=S)N/C1=C\c1ccccc1OCc1ccc(C(=O)O)cc1 | inactive |
| CS(=O)(=O)NCCNc1ccc(C(F)(F)F)cc1[N+](=O)[O-] | inactive |
| CCOC(=O)c1sc(NC(=O)c2ccccc2OC)nc1C | inconclusive: 25.1 µM [inhibitor, partial curve] |
| COc1ccc(OC)c(C(=O)NC(CC(N)=O)c2ccc(NCCN3CCOCC3)c([N+](=O)[O-])c2)c1 (stereo not drawn) | inconclusive: 25.1 µM [inhibitor, single point] |
| Cc1ccc(S(=O)(=O)NC(CN2CCOCC2)=NCCNS(=O)(=O)c2ccccc2)cc1 | inactive |
| COc1cccc(C(=O)Nc2nc(-c3ccccc3)c(-c3ccccc3)o2)c1 | inconclusive: 39.8 µM [inhibitor, single point] |
| CC1(C)CC(=O)c2cc(C(=O)Nn3cnnc3)c(=O)n(-c3ccccc3)c2C1 | inconclusive: 28.2 µM [inhibitor, partial curve] |
| O=C1CCC(=O)N1c1ccc(CSc2nc3ccccc3[nH]2)cc1 | inactive |
| CCOc1ccccc1Nc1nc2ccccc2n1C(C)C | inactive |
| COC(=O)c1nc(N)sc1-c1ccc(Cl)c(Cl)c1 | inconclusive: 22.4 µM [inhibitor, partial curve] |

| Compound | Potency |
| --- | --- |
| CCOC(=O)C1=C(N)OC2=C(C(=O)CC(C)(C)C2)C1c1cccnc1 (stereo not drawn) | inactive |
| CCN(CC)CCCCn1c(-c2ccccc2)nc2c(NC3CCCCC3)nc(C)nc21 | inconclusive: 25.1 µM [inhibitor, partial curve] |
| CCC(C)(C)NC(=O)COc1ccc(OCc2ccccc2)cc1 | inconclusive: 35.5 µM [inhibitor, single point] |
| CC(=O)Nc1nc2n(n1)C(c1ccc(Cl)cc1)C=C(C)N2 (stereo not drawn) | inconclusive: 31.6 µM [inhibitor, partial curve] |
| COc1cccc(CN(C)C(=O)c2ccc3nccnc3c2)c1 | inactive |
| CCN(/C=N/c1sc2c(c1C#N)CCCCC2)CC | inactive |
| Oc1ccccc1/C=N/Nc1ncc(Br)cn1 | inconclusive: 8.91 µM [inhibitor, partial curve] |
| O=C1C=CC2=C3c4cc(O)c(O)cc4CC3(O)COC2=C1O (stereo not drawn) | active: 6.31 µM and active: 2 µM |
| COc1ccc(-c2cc3nc(C)cc(NCCO)n3n2)cc1 | inconclusive: 25.1 µM [inhibitor, partial curve] |
| O=C(O)CC(SCC(=O)Nc1ccccc1)C(=O)O (stereo not drawn) | inconclusive: 25.1 µM [inhibitor, single point] |
| COc1ccc(OC)c(-c2cc(C(=O)Nc3c(C)nn(Cc4ccc(Cl)cc4)c3C)no2)c1 | inconclusive: 25.1 µM [inhibitor, partial curve] |
| O=C(Nc1nc(-c2ccc(Cl)s2)cs1)c1cccs1 | inconclusive: 31.6 µM [inhibitor, single point] |
| COc1ccc(CNC(=O)c2cc3c(=O)[nH]c4ccccc4c3n2C)cc1 | inconclusive: 39.8 µM [inhibitor, single point] |
| Cc1ccccc1-n1sc2cc(F)ccc2c1=O | active: 11.2 µM |
| O=C1c2cnc3nc(SCc4cccc(Cl)c4)nn3c2CC2c3ccccc3CCN12 (stereo not drawn) | inconclusive: 10 µM [inhibitor, partial curve] |
| COc1ccccc1-n1cnc2cc(NCc3ccccn3)ccc21 | inactive |
| O=C(Nc1nc2c(s1)COc1ccccc1-2)c1cccs1 | inconclusive: 35.5 µM [inhibitor, single point] |
| Cn1c2ccc(Cl)cc2c2nc3ccccc3nc21 | inconclusive: 17.8 µM [inhibitor, partial curve, poor fit] |
| O=C1CC(c2ccco2)CC(O)=C1C=Nc1ccccc1-c1ccccc1 (stereo not drawn) | inconclusive: 35.5 µM [inhibitor, single point] |
| O=C(COc1ccc(Cl)cc1Cl)Nc1ccc(Cl)cn1 | inactive |
| O=C(Nc1ccccc1C(F)(F)F)Nc1cccc2ccccc12 | inconclusive: 31.6 µM [inhibitor, partial curve] |
| CCC(=O)Nc1nc(=S)ss1 | inconclusive: 39.8 µM [inhibitor, single point] |
| N#Cc1c(N)n(-c2cccc(O)c2)c2nc3ccccc3nc12 | inconclusive: 31.6 µM [inhibitor, partial curve] |
| Cc1ccc(Cn2c(=N)c(C#N)cc3c(=O)n4cccc(C)c4nc32)cc1 | inconclusive: 10 µM [inhibitor, partial curve] |
| CC(=O)N1CCC(=NNc2ccc(S(N)(=O)=O)cc2[N+](=O)[O-])CC1 | inactive |

| Compound | Potency |
| --- | --- |
| COc1cc(/C=C(\C#N)c2nc3ccccc3n2C)cc(OC)c1O | inconclusive: 39.8 µM [inhibitor, single point] |
| O=C(Nc1ccc(Cl)cc1C(=O)NCC1CCCO1)c1ccc(Cl)cc1Cl (stereo not drawn) | inactive |
| CC(CC(=O)N1CCN(c2ccc(C(F)(F)F)cn2)CC1)n1ccnc1 (stereo not drawn) | inconclusive: 28.2 µM [inhibitor, single point] |
| CCOC(=O)N1CCN(S(=O)(=O)c2ccc(C(=O)Nc3nc4ccccc4s3)cc2)CC1 | inconclusive: 31.6 µM [inhibitor, partial curve] |
| COC(=O)c1ccc2c(=O)sc(N3CCC(C(N)=O)CC3)nc2c1 | inconclusive: 39.8 µM [inhibitor, single point] |
| CN1CCN(CC(=O)O)CC1 | inactive |
| CCOCCCNC(=O)C(NC(=O)CNC(C)=O)c1ccc(Cl)cc1 (stereo not drawn) | inconclusive: 28.2 µM [inhibitor, single point] |
| Cc1cc(C(C)(C)C)nc2[nH]n(-c3ccccc3)c(=O)c12 | inactive |
| CCOC(=O)c1sc2ncnc(NCc3ccco3)c2c1C | inconclusive: 31.6 µM [inhibitor, partial curve] |
| Oc1ccc(-c2nc3ccccc3s2)cc1 | inconclusive: 25.1 µM [inhibitor, partial curve] |
| CC1(C)CC(=O)c2c(-c3cccs3)n[nH]c2C1 | inconclusive: 31.6 µM [inhibitor, partial curve] |
| Cc1cccc2c1CC(C)(C)N=C2C1=C(O)CCCC1=O | inconclusive: 8.91 µM [inhibitor, single point] |
| COc1ccccc1Nc1nnc(SCc2cc(=O)n3cc(C)ccc3n2)s1 | inactive |
| CCCC(=O)NCCc1ccc(S(N)(=O)=O)cc1 | inactive |
| CC(NC(=O)/C(C#N)=C1\N=C(NC(=O)c2ccco2)c2ccccc21)c1ccccc1 (stereo not drawn) | inactive |
| C#CCSc1nc(-c2ccccc2)cc(C(F)(F)F)c1C#N | inconclusive: 25.1 µM [inhibitor, partial curve] |
| Cc1ccc(N(Cc2ccc(C(=O)NCC3CCCO3)cc2)S(C)(=O)=O)cc1C (stereo not drawn) | inactive |
| COc1ccc2c(c1)CCc1sc(NC(=O)c3ccco3)nc1-2 | inconclusive: 35.5 µM [inhibitor, single point] |
| O=C(/C=C/c1c(F)cccc1Cl)c1ccc(O)cc1 | inactive |
| COC(=O)Oc1ccc(/C=N/NC(=O)CN(c2ccccc2Br)S(C)(=O)=O)cc1OC | inconclusive: 28.2 µM [inhibitor, single point] |
| CCCNC(=S)N1CCC(C(=O)c2ccc(OC)cc2)CC1 | inactive |
| COc1ccc(NC(=O)C2CCCCN2N)cc1OCC(C)C (stereo not drawn) | inconclusive: 17.8 µM [inhibitor, single point] |
| FC(F)Oc1ccc(NC(=S)Nc2ccc3cn[nH]c3c2)cc1 | inconclusive: 39.8 µM [inhibitor, single point] |
